To fix the notation:
B1: chr4:57031156:57031257:-|3pUTR|ENSG00000163453|msi1|total|mutant (ssRNA)
RNA: GGGAGUUCUACAGUCCGACGAUCAUAACUACAUUACCUGUUCUUGCCUAAUAAGUUUCUUUUAAUCCAAUCCACUAACACUUCCGUUAUAUUCACUGGUUUUACACAGAGAAAUACAAAAUAAAGAUCACACAUCAAGACUAUCAACAGAGGAUUGAGCAUCA
B2: ENSG00000198589:be:win_1001|CDS|ENSG00000198589|bound_else_gene|NA|bound_elsewhere_windowed (ssRNA)
RNA: GGGAGUUCUACAGUCCGACGAUCUCAACACUAGCGAUACCUUUGACAAAUGUUUCCUGGGCUCAUCAGAAACAGCAGAUGCUAAUAGAGUAUUCUGUGGUCAGAUGACUGCAGUUUACCUUUUCAGUGAAGCUCUAAAUGCAGCAACAGAGGAUUGAGCAUCA
B3: chr9:6012816:6012917:-|CDS|ENSG00000137040|unk|total|mutant (ssRNA)
RNA: GGGAGUUCUACAGUCCGACGAUCGGGAUUGUGCAUAUUUGAUGACAUCACCGAGCACUGCAGUCCAACUUCAUUUAAAUAUGCCGAAUAUUUUCGGUGGCCAAUGCUACUAAAUAUGCGAGAUAACAACCCUGAAGUCAGGCACAACAGAGGAUUGAGCAUCA
B4: ENSG00000136451:be:win_1651|3pUTR|ENSG00000136451|bound_else_gene|NA|bound_elsewhere_windowed (ssRNA)
RNA: GGGAGUUCUACAGUCCGACGAUCAUGAAAUUGGGAGAUUUUAUUACAUUAGUUAAUAAGAGUGUGGUAGCAUUUUUCUCCAAUUUGGCUGGGAUUAUUCAAAGUAGGGUGUGUAUGUAACUUAUCACUGGACCACUUUAGUUUCAACAGAGGAUUGAGCAUCA
B5: chr15:75657416:75657517:+|3pUTR|ENSG00000173548|msi1|FALSE|unique (ssRNA)
RNA: GGGAGUUCUACAGUCCGACGAUCCAUGGGUGCCCCUGGGAAAUUCCCCACUCCUUAGAAGUGGGGCACAGCAGGGGUGAGAAUAGAGUCAGGAGCCCUCGAGGCCAAGGCCUGGGCUGCCGGUCAGUCAGUGAAGGUCAGGCCCAACAGAGGAUUGAGCAUCA
B6: chr10:17237356:17237519:+|3pUTR|ENSG00000026025|msi1_unk|FALSE|overlapping (ssRNA)
RNA: GGGAGUUCUACAGUCCGACGAUCAGAUAGAUUUGGAAUAGGAAUAAGCUCUAGUUCUUAACAACCGACACUCCUACAAGAUUUAGAAAAAAGUUUACAACAUAAUCUAGUUUACAGAAAAAUCUUGUGCUAGAAUACUUUUUACAACAGAGGAUUGAGCAUCA
B7: chr2:99394746:99394872:+|CDS|ENSG00000158417|unk|total|mutant (ssRNA)
RNA: GGGAGUUCUACAGUCCGACGAUCGAUGUGAGAAUUGAACGAGAUGCACAAGAAAUGGCUGACCGUUCCGGAGUCCGAAUUUUCCGUGCAGAAAUUAUUUAUCAUUUAUUUGAUGCCUUUACAAAAUACCGACAAGACUACAAGCAACAGAGGAUUGAGCAUCA
B8: chr1:152032676:152032810:-|CDS|ENSG00000163191|unk|total|mutant (ssRNA)
RNA: GGGAGUUCUACAGUCCGACGAUCGGACCCUGGUGUCCUUGACCGCAUGAUGAAGAAACUGGACACCAACAGUGAUGGUCAGCCCGAUUUCUCAGAAUUUCUUAAUCUGAUUGGUGGCCCCGCUAUGGCUUGCCAUGACUCCUUCAACAGAGGAUUGAGCAUCA
B9: chr15:38484694:38484795:+|3pUTR|ENSG00000171262|unk|FALSE|unique (ssRNA)
RNA: GGGAGUUCUACAGUCCGACGAUCAUUAGAAAUAGUGUUCCAAAUAACAUACUUGAAUAUCAUCUUUGAAGUAAACACCAUGUUAGACUCCCUGGUGAUACCACUCUUGAAUUGGUUAAUAUGUAAGAACAUUGUUUUUUAUUACAACAGAGGAUUGAGCAUCA
B10: chr6:111661451:111661552:-|3pUTR|ENSG00000010810|msi1|FALSE|bound_elsewhere (ssRNA)
RNA: GGGAGUUCUACAGUCCGACGAUCCUUUGGAAAAUGCAUUGUAUCGAUGUUAUGUAAAAGGCCAAACCUCUGUUCAGUGUAAAUAGUUACUCCAGUGCCAACAAUCCUAGUGCUUUCCUUUUUUAAAAAUGCAAAUCCUAUGUGCAACAGAGGAUUGAGCAUCA
B11: chr2:205797254:205797461:+|3pUTR|ENSG00000118257|msi1|total|mutant (ssRNA)
RNA: GGGAGUUCUACAGUCCGACGAUCUCACCCUCCCAUGAUGCGCAGUGUUCAGAAAGCUGGUAAGUCCCCGGGAUUUCCAGAAGCCGCCUGCAGAAGAAGGUAAGUUUGAAAGCCACUCCAGGGGUCCUGAUGCUGUCAUGCUCACAACAGAGGAUUGAGCAUCA
B12: chr11:10770493:10770605:+|CDS|ENSG00000198730|unk|FALSE|unique (ssRNA)
RNA: GGGAGUUCUACAGUCCGACGAUCACAUGUGGCACCCAGUGAUACAGUUCUUAUGUUUAAUGUGGCCUUGGUCCUGCAAAGAUUAGCUACCUCUGUCCUGAAAGAUGAAAAAAGUAAUCUGAAGGAAGUACUUAAUGCUGUGAACAACAGAGGAUUGAGCAUCA
B13: chr20:50584425:50584526:+|3pUTR|ENSG00000196396|msi1|FALSE|unique (ssRNA)
RNA: GGGAGUUCUACAGUCCGACGAUCACCUCCUAUCCUUGGAGAGCAGCUGGCUCUCCACCUUGUUACACAUUAUGUUAGAGAGGUAGCGAGCUGCUCUGCUAUAUGCCUUAAGCCAAUAUUUACUCAUCAGGUCAUUAUUUUUUACAACAGAGGAUUGAGCAUCA
B14: chr7:20413385:20413486:+|3pUTR|ENSG00000105855|msi1|total|mutant (ssRNA)
RNA: GGGAGUUCUACAGUCCGACGAUCACUGAAGAUAUCUUUAUGCAAGACAAGAGUCAGCCAUCAGACACUGAAAUAUAUUAUGACCGAUUAUGAAGAAUUUUCUCUGCCGAAUUAUAUUCUUCCUGGAACCUGGCCGAGCCGAUUCAACAGAGGAUUGAGCAUCA
B15: chr13:32775312:32775413:+|3pUTR|ENSG00000083642|unk|FALSE|unique (ssRNA)
RNA: GGGAGUUCUACAGUCCGACGAUCGAAACUUGUAAAUAUCUUUUUUCUUUUUUUUAAUGUUUCUGAUUUCUGAAGUGCUUGUAUAGCUUUUAUCUGCGGCUUUAAACUGACAGUACCCGACUGUUUAUUGGAUCUAUUGAUUUGCAACAGAGGAUUGAGCAUCA
B16: chr19:54333184:54333571:-|three_prime_utr|ENSG00000239961|control|control|control (ssRNA)
RNA: GGGAGUUCUACAGUCCGACGAUCGCUGAGAAUAUCAAGGGGAAGAAGCAUGGGUCAGGUGCAGGAAGAUGUCUGGGUGUCUGUAGAAGAUGCUUCCUCCAUUAAACUGUGGUGCUUUCCUCCUCAUUGUCGACUCUCCUUGACCAACAGAGGAUUGAGCAUCA
B17: ENSG00000198589:be:win_7751|CDS|ENSG00000198589|bound_else_gene|NA|bound_elsewhere_windowed (ssRNA)
RNA: GGGAGUUCUACAGUCCGACGAUCAAGUGCAUUCCCAGUGCUUUGUCAUCACUUCAGACAACCGCUAUAUUCUCGUCUGUGGCUUCUGGGAUAAAAGUUUCAGAGUCUAUUCUACAGACACAGGAAGAUUGAUCCAAGUGGUGUCAACAGAGGAUUGAGCAUCA
B18: chr1:27612063:27612913:-|three_prime_utr|ENSG00000000938|control|control|control (ssRNA)
RNA: GGGAGUUCUACAGUCCGACGAUCGGUGGCCACCAGUCCUUGCCAAUCCCCAGAGCUGUUCUUCCAAAGCCCCCAGGCUGGCUUAGAACCCCAUAGAGUCCUAGCAUCACCGAGGACGUGGCUGCUCUGACACCACCUAGGGCACAACAGAGGAUUGAGCAUCA
B19: chr17:48061271:48061372:+|3pUTR|ENSG00000082641|msi1|total|mutant (ssRNA)
RNA: GGGAGUUCUACAGUCCGACGAUCAGUGAAAUGGGGGUGGGGGGAAGCACUGAUUCCCAGUCCGGGGGUGCCUAACUGAGCAGCCGGGACCGAAGGUGUGAACCUGGGAGUGCUUUUAUAAAUUAUUUUCCUUGCCGAUUUUAUCAACAGAGGAUUGAGCAUCA
B20: ENSG00000061794:stop:overlap|stop_codon|ENSG00000061794|stop_codon|NA|stop_codon (ssRNA)
RNA: GGGAGUUCUACAGUCCGACGAUCUCUCCACUGCCGUCUACUCGGCCACUCCGGUCCCGACACCUAGCCUGCGCACUACCUCCUAGGACAGAGAAAAUGGCUGUUGACCAGGACUGGCCUAGUGUUUACCCAGUUGCAGCACCACAACAGAGGAUUGAGCAUCA
B21: chr4:75800632:75800752:+|CDS|ENSG00000138768|unk|FALSE|unique (ssRNA)
RNA: GGGAGUUCUACAGUCCGACGAUCAAACAACUGAUUGAGAAGAGGAUUGGCAAAGAGAAUUUCAUAGAGAAACUAGGAUUUAUUAGCAAACAUGAGUUGUAUUCCAGAGCAUCUCAGAAACCCCAGCCAAACUUUCCCAGUCCACAACAGAGGAUUGAGCAUCA
B22: chr15:25371268:25371377:-|CDS|ENSG00000114062|unk|total|mutant (ssRNA)
RNA: GGGAGUUCUACAGUCCGACGAUCCACAAUGUAUACUCUCGAGAUCCUAAUUAUCUGAAUUUGUUCAUUAUCGUAAUGGAGAACCGAAAUCUCCACAGUCCUGAAUAUCUGGAAAUGGCUUUGCCAUUAUUUUGCAAAGCGAUGCAACAGAGGAUUGAGCAUCA

The other results are listed elsewhere or left out.

The assay concerns the target MSI1 full-length (mouse, UniProt Q61474 1-362). Kind of assay: nsRBNS (natural sequence RNA bind-n-seq); RBNS binding buffer (assumed for nsRBNS): 25 mM Tris pH 7.5, 150 mM KCl, 3 mM MgCl2, 0.01% Triton X-100, 500 ug/ml BSA, 20 U/ml SUPERase-In, 4 C; UNK is unkempt and MSI1 is Musashi-1; names of the RNAs are library labels; protein concentration not given here; high values mean tight binding.
UniProt Q61474, sequence (Q61474 whole entry): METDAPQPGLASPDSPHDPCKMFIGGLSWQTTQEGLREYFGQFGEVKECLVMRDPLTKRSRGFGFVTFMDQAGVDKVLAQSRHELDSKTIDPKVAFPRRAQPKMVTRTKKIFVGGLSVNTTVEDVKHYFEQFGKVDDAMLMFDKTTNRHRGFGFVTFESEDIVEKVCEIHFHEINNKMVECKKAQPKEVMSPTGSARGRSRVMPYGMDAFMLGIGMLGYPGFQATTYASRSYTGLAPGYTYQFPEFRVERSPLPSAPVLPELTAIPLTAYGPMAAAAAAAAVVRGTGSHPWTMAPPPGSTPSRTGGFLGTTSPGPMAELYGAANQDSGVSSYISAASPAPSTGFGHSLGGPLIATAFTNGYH
Consider B1, for which the binding signal was 1.43 enrichment R. With B2, the binding signal amounted to 0.431 enrichment R. Turning to B3, the binding signal is 0.287 enrichment R. B4 gave a binding signal of 2.18 enrichment R. For the molecule B5, the binding signal was determined as 0.407 enrichment R. To B6 belongs 20.9 enrichment R; to B7, 0.374 enrichment R; to B8, 0.259 enrichment R. For B9 the value was 0.922 enrichment R; for B10, 2.5 enrichment R; for B11, 0.483 enrichment R. B12 had a binding signal of 0.659 enrichment R. With B13, the binding signal is 6.1 enrichment R. Turning to B14, the binding signal came out at 0.223 enrichment R. Regarding B15, the binding signal stood at 0.648 enrichment R.

Take B16: the binding signal turned out to be 0.576 enrichment R. B17: the binding signal came out at 0.205 enrichment R. As to B18, the binding signal was 0.638 enrichment R.

B19: the binding signal came to 0.717 enrichment R.

In turn, B20 returned a binding signal of 0.532 enrichment R. Turning to B21, the binding signal was found to be 3.47 enrichment R. Consider B22, for which the binding signal came to 0.673 enrichment R.

The values above are taken from publication PMC12136788.
